Article PMC5775257
These are yes or no findings as the source states them, for the method shown. Binding seen in cells or lysates may run through a third protein. Some entries that bind do so weakly or less than the wild type.

T1: endogenous NUFIP2 (HEK293T cells) (human (endogenous in HEK293T)) (UniProt Q7Z417)
T1 sequence: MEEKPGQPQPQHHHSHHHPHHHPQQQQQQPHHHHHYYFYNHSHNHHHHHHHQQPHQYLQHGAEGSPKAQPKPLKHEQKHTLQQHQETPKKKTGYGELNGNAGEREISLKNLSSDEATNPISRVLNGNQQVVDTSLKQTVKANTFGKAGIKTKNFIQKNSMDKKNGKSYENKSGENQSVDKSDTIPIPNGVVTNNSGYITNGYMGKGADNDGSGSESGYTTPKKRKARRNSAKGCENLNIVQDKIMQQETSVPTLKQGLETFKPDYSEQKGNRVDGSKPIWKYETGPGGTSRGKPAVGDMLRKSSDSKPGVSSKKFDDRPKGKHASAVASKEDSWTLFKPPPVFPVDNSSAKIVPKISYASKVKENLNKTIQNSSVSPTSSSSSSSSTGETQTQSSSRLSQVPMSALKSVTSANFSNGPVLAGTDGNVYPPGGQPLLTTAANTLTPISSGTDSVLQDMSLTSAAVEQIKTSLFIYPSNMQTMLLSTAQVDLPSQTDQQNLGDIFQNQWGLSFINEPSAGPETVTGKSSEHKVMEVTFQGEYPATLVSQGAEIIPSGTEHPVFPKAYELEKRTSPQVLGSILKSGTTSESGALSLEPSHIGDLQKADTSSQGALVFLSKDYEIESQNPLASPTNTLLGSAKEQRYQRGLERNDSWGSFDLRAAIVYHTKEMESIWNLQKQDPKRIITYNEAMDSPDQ

T2: endogenous Roquin-1 (MEF cells) (mouse (endogenous in MEF)) (UniProt Q4VGL6)
T2 sequence: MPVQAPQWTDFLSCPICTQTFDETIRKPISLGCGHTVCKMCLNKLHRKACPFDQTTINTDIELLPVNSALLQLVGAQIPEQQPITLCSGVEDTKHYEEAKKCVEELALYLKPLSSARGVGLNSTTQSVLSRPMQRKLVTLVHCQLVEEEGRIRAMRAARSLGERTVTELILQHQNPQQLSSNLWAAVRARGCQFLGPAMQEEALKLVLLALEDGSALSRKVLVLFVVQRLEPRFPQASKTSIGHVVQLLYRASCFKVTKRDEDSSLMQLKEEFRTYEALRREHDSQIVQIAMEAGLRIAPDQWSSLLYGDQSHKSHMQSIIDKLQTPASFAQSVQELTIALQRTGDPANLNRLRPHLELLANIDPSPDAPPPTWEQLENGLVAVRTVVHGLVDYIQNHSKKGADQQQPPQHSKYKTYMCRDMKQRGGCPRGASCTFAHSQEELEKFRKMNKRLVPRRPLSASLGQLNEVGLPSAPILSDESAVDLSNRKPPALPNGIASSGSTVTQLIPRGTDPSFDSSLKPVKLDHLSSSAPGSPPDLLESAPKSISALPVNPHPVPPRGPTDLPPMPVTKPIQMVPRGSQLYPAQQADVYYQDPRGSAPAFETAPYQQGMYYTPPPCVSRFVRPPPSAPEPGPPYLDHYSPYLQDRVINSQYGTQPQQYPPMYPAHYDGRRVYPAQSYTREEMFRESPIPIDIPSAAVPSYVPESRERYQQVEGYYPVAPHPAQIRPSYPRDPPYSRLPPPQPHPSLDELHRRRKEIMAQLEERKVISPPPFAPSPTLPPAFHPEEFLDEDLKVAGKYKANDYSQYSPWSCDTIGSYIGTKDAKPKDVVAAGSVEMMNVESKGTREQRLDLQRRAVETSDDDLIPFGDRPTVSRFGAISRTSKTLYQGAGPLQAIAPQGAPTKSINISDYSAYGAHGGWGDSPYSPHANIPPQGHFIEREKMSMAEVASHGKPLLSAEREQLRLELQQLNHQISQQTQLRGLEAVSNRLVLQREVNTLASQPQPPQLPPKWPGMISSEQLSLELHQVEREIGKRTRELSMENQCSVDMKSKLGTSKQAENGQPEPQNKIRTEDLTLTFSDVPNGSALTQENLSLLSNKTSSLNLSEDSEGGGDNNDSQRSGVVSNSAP

T3: endogenous Roquin-2 (MEF cells) (mouse (endogenous in MEF)) (UniProt P0C090)
T3 sequence: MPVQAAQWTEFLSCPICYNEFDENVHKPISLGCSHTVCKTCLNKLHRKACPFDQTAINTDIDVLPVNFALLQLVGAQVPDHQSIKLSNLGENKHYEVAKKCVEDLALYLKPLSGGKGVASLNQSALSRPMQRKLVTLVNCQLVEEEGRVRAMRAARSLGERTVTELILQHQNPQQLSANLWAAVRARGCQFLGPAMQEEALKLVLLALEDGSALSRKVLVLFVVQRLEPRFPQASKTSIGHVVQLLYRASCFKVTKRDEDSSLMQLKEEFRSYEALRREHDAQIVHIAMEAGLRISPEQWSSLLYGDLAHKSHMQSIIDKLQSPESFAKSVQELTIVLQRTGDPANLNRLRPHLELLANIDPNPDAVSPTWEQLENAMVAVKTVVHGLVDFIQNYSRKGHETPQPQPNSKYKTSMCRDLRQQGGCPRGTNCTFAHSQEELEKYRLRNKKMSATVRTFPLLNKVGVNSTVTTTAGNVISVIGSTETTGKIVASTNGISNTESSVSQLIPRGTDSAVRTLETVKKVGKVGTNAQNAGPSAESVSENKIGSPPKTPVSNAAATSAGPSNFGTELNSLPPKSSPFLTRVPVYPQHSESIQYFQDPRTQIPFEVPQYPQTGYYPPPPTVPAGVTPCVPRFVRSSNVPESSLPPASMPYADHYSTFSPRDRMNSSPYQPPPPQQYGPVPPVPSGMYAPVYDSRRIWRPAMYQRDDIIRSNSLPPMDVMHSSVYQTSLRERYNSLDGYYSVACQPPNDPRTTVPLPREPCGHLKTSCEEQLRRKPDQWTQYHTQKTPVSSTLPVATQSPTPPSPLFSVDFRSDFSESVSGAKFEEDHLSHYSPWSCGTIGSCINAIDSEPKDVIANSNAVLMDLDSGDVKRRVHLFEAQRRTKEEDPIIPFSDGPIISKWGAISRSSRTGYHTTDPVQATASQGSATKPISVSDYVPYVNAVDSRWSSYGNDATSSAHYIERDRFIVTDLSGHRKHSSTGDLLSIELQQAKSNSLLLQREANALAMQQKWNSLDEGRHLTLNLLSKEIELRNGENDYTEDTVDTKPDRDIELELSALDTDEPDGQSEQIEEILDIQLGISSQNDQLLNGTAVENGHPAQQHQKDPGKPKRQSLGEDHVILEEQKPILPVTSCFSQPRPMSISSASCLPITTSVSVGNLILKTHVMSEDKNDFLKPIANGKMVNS

T4: sanroque mutant of Roquin-1 (Roquin-1 M199R) (mouse (endogenous in MEF)) (UniProt Q4VGL6)
T4 sequence: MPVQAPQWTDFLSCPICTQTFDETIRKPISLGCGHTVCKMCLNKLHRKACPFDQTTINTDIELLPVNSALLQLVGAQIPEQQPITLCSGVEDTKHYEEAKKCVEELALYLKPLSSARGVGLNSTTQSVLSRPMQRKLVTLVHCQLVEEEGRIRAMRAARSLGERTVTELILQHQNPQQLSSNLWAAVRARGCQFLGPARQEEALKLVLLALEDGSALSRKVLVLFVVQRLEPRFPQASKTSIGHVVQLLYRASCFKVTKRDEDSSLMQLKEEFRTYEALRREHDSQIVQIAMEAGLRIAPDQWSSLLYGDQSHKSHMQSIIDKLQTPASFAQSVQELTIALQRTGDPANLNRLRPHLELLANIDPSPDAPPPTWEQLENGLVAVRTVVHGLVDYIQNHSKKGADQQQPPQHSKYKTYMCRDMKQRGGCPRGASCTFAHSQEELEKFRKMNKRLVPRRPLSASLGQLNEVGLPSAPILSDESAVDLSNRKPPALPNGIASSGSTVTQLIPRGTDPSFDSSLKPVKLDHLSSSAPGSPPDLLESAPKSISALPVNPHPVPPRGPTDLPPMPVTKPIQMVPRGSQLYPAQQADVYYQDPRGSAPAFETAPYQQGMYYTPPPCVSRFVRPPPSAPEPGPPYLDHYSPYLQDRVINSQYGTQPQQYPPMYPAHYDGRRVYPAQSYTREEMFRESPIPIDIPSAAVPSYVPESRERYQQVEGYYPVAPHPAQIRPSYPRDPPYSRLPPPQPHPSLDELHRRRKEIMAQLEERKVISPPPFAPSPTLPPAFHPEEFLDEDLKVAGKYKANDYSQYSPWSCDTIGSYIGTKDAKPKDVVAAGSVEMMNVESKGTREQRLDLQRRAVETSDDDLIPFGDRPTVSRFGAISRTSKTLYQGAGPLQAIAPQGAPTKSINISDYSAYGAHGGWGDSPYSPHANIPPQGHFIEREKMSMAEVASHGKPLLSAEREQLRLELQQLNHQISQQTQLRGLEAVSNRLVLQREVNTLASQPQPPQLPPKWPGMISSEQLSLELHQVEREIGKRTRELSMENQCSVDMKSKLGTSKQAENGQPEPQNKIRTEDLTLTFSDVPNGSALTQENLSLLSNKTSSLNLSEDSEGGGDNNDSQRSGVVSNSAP

B1: Roquin-1 (transfected, HEK293T) (protein, UniProt Q4VGL6 1-1130)
chain: MPVQAPQWTDFLSCPICTQTFDETIRKPISLGCGHTVCKMCLNKLHRKACPFDQTTINTDIELLPVNSALLQLVGAQIPEQQPITLCSGVEDTKHYEEAKKCVEELALYLKPLSSARGVGLNSTTQSVLSRPMQRKLVTLVHCQLVEEEGRIRAMRAARSLGERTVTELILQHQNPQQLSSNLWAAVRARGCQFLGPAMQEEALKLVLLALEDGSALSRKVLVLFVVQRLEPRFPQASKTSIGHVVQLLYRASCFKVTKRDEDSSLMQLKEEFRTYEALRREHDSQIVQIAMEAGLRIAPDQWSSLLYGDQSHKSHMQSIIDKLQTPASFAQSVQELTIALQRTGDPANLNRLRPHLELLANIDPSPDAPPPTWEQLENGLVAVRTVVHGLVDYIQNHSKKGADQQQPPQHSKYKTYMCRDMKQRGGCPRGASCTFAHSQEELEKFRKMNKRLVPRRPLSASLGQLNEVGLPSAPILSDESAVDLSNRKPPALPNGIASSGSTVTQLIPRGTDPSFDSSLKPVKLDHLSSSAPGSPPDLLESAPKSISALPVNPHPVPPRGPTDLPPMPVTKPIQMVPRGSQLYPAQQADVYYQDPRGSAPAFETAPYQQGMYYTPPPCVSRFVRPPPSAPEPGPPYLDHYSPYLQDRVINSQYGTQPQQYPPMYPAHYDGRRVYPAQSYTREEMFRESPIPIDIPSAAVPSYVPESRERYQQVEGYYPVAPHPAQIRPSYPRDPPYSRLPPPQPHPSLDELHRRRKEIMAQLEERKVISPPPFAPSPTLPPAFHPEEFLDEDLKVAGKYKANDYSQYSPWSCDTIGSYIGTKDAKPKDVVAAGSVEMMNVESKGTREQRLDLQRRAVETSDDDLIPFGDRPTVSRFGAISRTSKTLYQGAGPLQAIAPQGAPTKSINISDYSAYGAHGGWGDSPYSPHANIPPQGHFIEREKMSMAEVASHGKPLLSAEREQLRLELQQLNHQISQQTQLRGLEAVSNRLVLQREVNTLASQPQPPQLPPKWPGMISSEQLSLELHQVEREIGKRTRELSMENQCSVDMKSKLGTSKQAENGQPEPQNKIRTEDLTLTFSDVPNGSALTQENLSLLSNKTSSLNLSEDSEGGGDNNDSQRSGVVSNSAP
B2: endogenous Nufip2 (MEF cells) (protein, UniProt Q5F2E7 1-692)
chain: MEEKPGQPQPQHHHSHHHPHHHPQQQQQQQSHHHHHYYFYNHSHNHHHHHHHQQPHQYLQHGAEGSPKAQPKPLKHEQKHTLQQHQETPKKKTGYGEINGNAGEREISLKSLSSDEATNPISRVLNGNQQVVETSLKQTVKTSTFGKAGIKTKNFIQKNSMDKKNGKSYENKSGETQAVDKTDTIAIPNGVITSSSGYITNGYMSKGADNDGSGSESGYTTPKKRKARRNSAKGCENLNLVQDKIMQETSVPALKQGLETLKPDYSEQKGMRVDGSKPIWKYETGPGGTSRGKPAMGDVLRKSSDIKPGLSSKKFDDRPKGKHASAAASKEDSWTLFKPPPVFPVDNSSAKIVPKISYASKVKENLNKTVQNSSVSPSSSSSSSSTGETQTQSSSRLSQVPMSALKSVTSASFSNGPVLAGTDGSVYPSGGQPLLTTAANTLTPISTGTDSVLQDMSLASAAVEQIKSSLFIYPSNMQTVLLSAQVDLPSQTDQQNLGDIFQNQWGLSFINEPSAGPETVIGKSSDHKVMEVTFQGEYPATLVSQGAEIIPSGTEHPVFPKAYELEKRTSPQVLGHILKPGTTESGALSLDPSHIGDLQKADTSSQGALVFLSKDYEIENQNPLASPTNTLLGSAKEQRYQRGLERNDSWGSFDLRAAIVYHTKEMESIWNLQKQDPKRIITYNEAMDSPDQ

What was measured:
[1] = biological target: T1, endogenous NUFIP2 (HEK293T cells) (human (endogenous in HEK293T)); experiment: co-IP; anti-Nufip2 (23G8) on Protein G Dynabeads; endogenous NUFIP2 from lysates of HEK293T cells transfected with Roquin-1 with or without FLAG-Fmrp; immunoblot
[2] = biological target: T2, endogenous Roquin-1 (MEF cells) (mouse (endogenous in MEF)); experiment: co-IP; anti-Roquin-1/2 (Q4-2) coupled to tosylactivated Dynabeads; endogenous proteins from MEF cell lysates of the indicated genotypes; immunoblot
[3] = biological target: T3, endogenous Roquin-2 (MEF cells) (mouse (endogenous in MEF)); experiment: as above
[4] = biological target: T4, sanroque mutant of Roquin-1 (Roquin-1 M199R) (mouse (endogenous in MEF)); experiment: as above

binding [1]	binding [2]	binding [3]	binding [4]	Binder
binds				B1
	binds	binds	binds	B2
